This note sets out measurements from PubChem BioAssay AID1508624 (National Center for Advancing Translational Sciences (NCATS), 2021).

Hit rate of the full screen: of about 48,000 compounds, about 120 (0.25%) were called active. Roughly 4% stayed inconclusive and do not appear here. Calls follow the shape of the dose curve; as a rule, active = well fitted activation curve with a large enough effect; inconclusive = small, poorly fitted or top-dose-only effect, or another doubt; inactive = no such curve, though single readings can be large or run the other way. This is one part of the list.

The assay is described as follows: Primary qHTS for Identification of Small Molecule Activators of Huntingtin-Antisense Promoter Activity. Also: nearly all actives have a fitted effect of over 55% in size. The note with it: HEK293 HTT-AS promoter firefly luciferase reporter, 24 h; series mostly up to 57.5 µM; activity change, positive = activation: at the top concentration. The method, boiled down: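 HEK293 luciferase promoter-reporter cells (2,500/well) plated 24 h, then compounds added at up to 57.5 uM final for 24 h at 37 °C. Firefly luminescence by Dual-Glo, normalized to vehicle (0%) and zero RLU (-100%).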
A general note: qHTS replaces the single test concentration by a dilution series.
As to `CC(C)(C)C(=O)OC1=CN(Cc2ccccc2)S(=O)(=O)c2ccccc21`, the “activity change, positive = activation” value is inactive: -8.99%. On to `CSc1ccc(C2c3c(oc4ccccc4c3=O)C(=O)N2CCCN2CCOCC2)cc1` (stereo not given), for which the “activity change, positive = activation” value was inactive: 10.5%.

Turning to `Oc1ccc(NCc2ccc(OCc3ccccc3Cl)cc2)cc1`, the “activity change, positive = activation” value was inactive: -2.54%. Consider `O=C(CSc1nc(=O)n(Cc2cccnc2)c2c1CCC2)Nc1ccc(F)cc1F`, for which the “activity change, positive = activation” value is inactive: -14.5%. In the case of `N#C/C(=C\c1c(Oc2ccc(Br)cc2)nc2ccccn2c1=O)c1nc2ccccc2s1`, the “activity change, positive = activation” value is inactive: 6.11%. On to `COC(=O)c1cccc(NC(=O)Nc2cc(C(=O)NCc3cccc(F)c3)ccc2N2CCCC2)c1`, for which the “activity change, positive = activation” value was inactive: -5.71%. Take `CC(=O)N1CCc2cc(Br)cc(S(=O)(=O)N3CCN(c4cccc(C)c4)C(C)C3)c21` (stereo not given): the “activity change, positive = activation” value was inactive: -10.1%. Take `COc1ccc(N2CCN(C(=O)CS(=O)(=O)c3cccc4nsnc34)CC2)cc1`: the “activity change, positive = activation” value is inactive: -30.5%. As to `CCCCN1CCc2nc(N3CCN(C)CC3)ncc2C1`, the “activity change, positive = activation” value was inactive: -6.65%.

Regarding `O=C(NCCc1csc(-c2cccnc2)n1)c1ccc(F)c(F)c1`, the “activity change, positive = activation” value is inactive: -31.2%. With `COc1ccc(CCN2CCC(CNC(=O)c3cnn(-c4ccccc4)c3C3CCN(C(=O)OC(C)(C)C)CC3)CC2)cc1`, the “activity change, positive = activation” value was inactive: -15.4%. As to `COc1ccccc1N1CCN(C(=O)c2cn(C)c3ccc(S(=O)(=O)N4CCOCC4)cc3c2=O)CC1`, the activity change, positive = activation is inactive: -11.3% [at 11.5 µM, percent change from vehicle, -100% = no light]. Then `CN(C)c1ccc(CNC(=O)CCCn2ccc3cc(S(=O)(=O)N4CCCC4)ccc32)cc1`, with inactive: 0%; and `COc1ccc(Cl)cc1NC(=O)c1cc(C)nn1-c1ccccc1`, with inactive: -15.9%. Take `CCOC(=O)c1c(NC(=O)c2cc(=O)c3ccc(C)cc3o2)sc(C)c1C`: the “activity change, positive = activation” value was inactive: -5.29%. Turning to `COc1cccc(N2CCN(S(=O)(=O)c3ccc4c(c3)CCCN4C(C)=O)CC2)c1`, the “activity change, positive = activation” value is inactive: -31.6%. `COc1ccc(C)cc1NC(=O)Cn1cc(S(=O)(=O)Cc2ccccc2Cl)c2ccccc21`: the “activity change, positive = activation” value is inactive: -15.1%.

Regarding `CCOc1cc2c(cc1OCC)C(c1c(F)cccc1Cl)CC(=O)N2` (stereo not given), the “activity change, positive = activation” value was inactive: -38%. Under `CCc1ccccc1NC(=O)c1nc(-c2ccncc2)no1` stands inactive: -5.17%; under `Cc1cccc(NC(=O)Cn2c(C(F)(F)F)nc3ccccc32)c1C`, inactive: -28.5%; under `O=C(NCCc1csc2nc(-c3ccc(F)cc3)nn12)c1ccco1`, inactive: -22.1%. Under `CCOC(=O)c1c(S(=O)(=O)N2CCC(C(=O)N3CCN(c4cc(C)ccc4C)CC3)CC2)c(C)n(C)c1C` stands inactive: -21.8%; under `Cc1sc2c(c1C)c(=O)n(-c1ccc(Cl)cc1)c(=O)n2Cc1c(F)cccc1Cl`, inactive: -31.5%; under `COc1cc(C2C(C(=O)Nc3ccccc3)=C(C)Nc3nc(SCc4ccccc4F)nn32)cc(OC)c1OC` (stereo not given), inactive: -21.5%. Regarding `COC(=O)c1cc(NC(=O)CCc2c(C)nc3cc(-c4ccccc4)nn3c2C)cc(C(=O)OC)c1`, the “activity change, positive = activation” value is inactive: -20.3%.
